# According to the supplement of paper PMC3334620:
# In all, about 33,000 sequences were measured (“E-score (-0.5 to 0.5)”: median about -0.056, highest 2% from about 0.38 on). This is one part of the list.
# Target: Stb4 (UniProt P50104)
# Assay: PBM E-score (8-mer binding enrichment) (E-score (-0.5 to 0.5)); higher = stronger / more preferred TF binding; most listed sequences are background and not binding sites
# Conditions: protein concentration: 200 nM; construct: GST-DNA-binding domain
# Summary of the method: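 Yeast transcription factors, full-length or as DNA-binding domains, were expressed with a GST tag using PURExpress in vitro transcription/translation. At about 100-200 nM they were applied to universal all-10-mer Agilent arrays, double-stranded by primer extension on fresh or once-stripped slides. Fluorescent anti-GST detected bound protein, and masliner normalised the scans. E-scores for ungapped eight-base words, pooled with reverse complements, came from the Universal PBM Analysis Suite.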
row,Sequence,PBM E-score
1,CAGGCCGA,0.246
2,CGACCCAG,0.073
3,CTTCTCAC,-0.00077
4,AGTTTCGG,0.412
5,GAAACGCC,0.118
6,TGCAGCAA,-0.132
7,GAGGCATC,-0.088
8,CCGGGGGA,0.224
9,AGACAGGA,-0.167
10,ATGCAATG,-0.183
11,ATCGCTGC,-0.00678
12,CAAGCTGA,-0.279
13,CTTCCTTA,-0.116
14,GATGTTGA,-0.138
15,CCCTGTGC,-0.0934
16,ACCCTACT,-0.156
17,AAGGGGCA,-0.127
18,GGGGTTTA,-0.0416
19,CAGTTGCC,0.101
20,AAATGGGT,-0.0154
21,ATTATGGA,-0.154
22,GCACAACC,-0.0641
23,CTGATCTC,-0.137
24,CAAATCTC,0.116
25,ACAAGGCT,-0.138

row,Sequence,PBM E-score
1,CTAACATC,-0.0585
2,TACTCCGA,0.369
3,TACGTCGA,-0.143
4,CCACCGCG,-0.00158
5,CCTGTCCA,-0.217
6,CCAGTGAG,-0.196
7,AATCGTCC,0.0978
8,GAGCCTGC,-0.0113
9,AAACGGAC,-0.0576
10,CTTAAGAA,-0.0442
11,CTCATTCA,-0.0489
12,CATTATAC,-0.0466
13,CCAGCCTC,-0.187
14,GCGTTGGA,-0.0621
15,ATGAGCCC,-0.191
16,TAAAGCCA,-0.278
17,AAGGCGCC,-0.0644
18,CCAAGTCC,-0.104
19,TCATGTCA,-0.183
20,CTGGGATC,-0.0424
21,GCCCGGAA,0.423
22,ACGTCCTG,-0.264
23,CAGAATAG,-0.0984
24,GTACTCAA,-0.179
25,ACGTGGGA,-0.323

row,Sequence,PBM E-score
1,AATTCGAT,0.0565
2,AGGCTATC,0.171
3,AGAGGTTA,-0.121
4,AATCACCG,0.113
5,AATAGGAA,-0.047
6,TGCCGAAA,0.444
7,CCGCTATA,0.0382
8,CGATGCCC,-0.0137
9,ATTGGAGA,-0.138
10,CGGTGCGA,0.0264
11,AATTGGAA,-0.0421
12,CCAGACGG,-0.0564
13,ACAACTCA,-0.162
14,ATAAGATA,-0.0798
15,CAGTGTGC,-0.277
16,ACACTCCG,0.141
17,CAGAGTGA,-0.0625
18,AGGATGGC,-0.0549
19,AAGACCAC,-0.242
20,CTCATTGA,-0.184
21,AACTCGAT,-0.0356
22,GTAGCCAA,-0.025
23,CCAGAGAG,-0.229
24,CGCTGGCC,-0.184
25,AGCAGCTG,-0.307

row,Sequence,PBM E-score
1,CGAGAGTA,0.208
2,AGTATAAG,-0.178
3,CGACAGTC,-0.088
4,GTAGGCGA,-0.177
5,AAACCGTT,-0.0185
6,CCTGCGGA,0.155
7,CAACATCA,-0.113
8,TAGGTACA,-0.253
9,CGCTGCCA,-0.14
10,ACGTTTAT,-0.169
11,AGCAGACG,-0.115
12,GTCTTTGA,-0.0803
13,CCACGATC,-0.109
14,CGATAACG,0.147
15,ACCAAAAT,0.0477
16,CATGCATC,0.121
17,CTCAAGTA,-0.237
18,ACCCCCCC,-0.258
19,ACCCCGGC,0.177
20,CAGATACA,-0.0179
21,GATAACGC,0.14
22,AGGCCAGC,-0.355
23,AACTACTG,-0.0775
24,CACGAGTA,-0.133
25,GGGGACAA,0.109

row,Sequence,PBM E-score
1,TCACATGA,-0.189
2,GAATACGA,0.041
3,ATGGATAG,0.0829
4,ATAGACAA,-0.161
5,AGTTGCGC,0.00476
6,AACAGGGT,-0.12
7,CCCCTGCC,-0.0484
8,GATGAGGA,-0.0802
9,AGGCGTTC,-0.0922
10,TATAGACA,-0.192
11,GTATGAAA,0.0752
12,ATTCGAGC,-0.174
13,GGATTGAA,0.0752
14,GGGGGTAA,-0.157
15,ACAGGGTA,-0.192
16,GGGGGGGA,-0.254
17,AAGTAACG,-0.0442
18,AAGTTAGT,0.0765
19,CGTTATAA,0.0593
20,AGCAGTTC,-0.305
21,AAATGGAC,-0.00847
22,TCAGGTAA,-0.287
23,AGGCCATC,-0.0517
24,ATCAGCCA,0.0129
25,TACGGGGA,0.0916

row,Sequence,PBM E-score
1,TCGGATAA,0.487
2,AAAAGGGT,-0.092
3,TCTTATAA,0.0481
4,ATCGCCGA,0.329
5,AGTCCCCA,-0.364
6,CGGTCAGA,0.107
7,CGCGTAAC,0.0425
8,ATTAAAGC,-0.135
9,CAGCGCTC,-0.14
10,TCACTCCA,-0.042
11,CTTCGCGA,0.0228
12,ATATCGGA,0.383
13,CAGCCTGG,-0.203
14,CTCCTACC,-0.137
15,TACCCGTA,0.31
16,AGACTGTG,-0.121
17,CTAATGTC,-0.021
18,ATATCCGC,0.389
19,AGTTGTTC,-0.00774
20,CAAAAAGG,-0.284
21,GTACGGAA,0.323
22,CATAGGCG,-0.143
23,TACACCTA,-0.142
24,CCTTCCAA,-0.163
25,GTATAGCA,-0.0389

row,Sequence,PBM E-score
1,GGGCAAAA,0.165
2,ACGGGCAT,0.0437
3,GAACGCTA,0.0146
4,GCAGGGAC,-0.302
5,GCTAGAGC,-0.0524
6,CACAGTAC,-0.263
7,CTCCATTC,-0.26
8,CTACGGTC,-0.0388
9,AAATCATT,-0.067
10,AGAATCCC,0.11
11,CTCGGGGC,0.291
12,CCCTTTTC,-0.147
13,ATTGCTCC,0.136
14,CAGTCCGG,0.22
15,CACAACAC,-0.197
16,CTCGGATC,0.481
17,CAACTCTG,-0.0468
18,AACAGACC,0.0491
19,CGTTATCC,0.196
20,CCTGACCG,0.017
21,CATTCGCC,-0.0759
22,AAAGATTT,0.0492
